Laboratory results published in PubChem BioAssay AID2546 (National Center for Advancing Translational Sciences (NCATS), 2010).
The whole screen tested about 310,000 compounds, of which about 11,000 (3.5%) were called active. Inconclusive means that the source gave no clear call. Such entries were picked first, then a sample of the others. Calls come from the whole dose curve; as a rule, active = well fitted inhibition curve with a large enough effect; inconclusive = small, poorly fitted or top-dose-only effect, or effect the other way; inactive = flat fitted curve, though single readings scatter. Potencies of inconclusive entries are left out as doubtful fits.

assay: VP16 counterscreen qHTS for inhibitors of ROR gamma transcriptional activity; settings: Drosophila S2 Gal4-VP16 UAS-luciferase, luminescence, 20 h; activity, negative = inhibition: at 53.6 µM (top of the series);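 note: Gal4-VP16 expression switched on by copper sulfate through the metallothionein promoter; nearly all actives have a fitted effect of over 50% in size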
% is set by controls: 0 for no effect and ±100 for the full control effect; potency is the fitted concentration of half-maximal effect; tags give direction and shape of the fitted curve.

SMILES	activity, negative = inhibition	Potency
CCOc1ncccc1C(=O)NCc1ccccc1Cl	inactive: -15.7%	–
CCc1ccccc1NC(=O)CN(C1CCCCC1)S(C)(=O)=O	inactive: -1.49%	–
CC(C)(C)c1ccc(C(=O)NC(=S)NCc2ccco2)cc1	–	active: 7.94 µM
CCN(CC)CC(=O)Nc1sc2c(c1C(=O)c1ccccc1OC)CCC2	–	active: 10 µM
CC1CCCN(c2nc(-c3cccnc3)nc3scc(-c4ccccc4)c23)C1 (stereo not drawn)	–	inconclusive [inhibitor, single point]
C=CCn1c(-c2cccc([N+](=O)[O-])c2)n[nH]c1=S	–	active: 8.91 µM
CCCCC(=O)NC(c1ccc(N(C)C)cc1)c1ccc2cccnc2c1O (stereo not drawn)	–	active: 3.16 µM
CN(C)c1ccc(/C=N/n2ncc3ccccc32)cc1	–	active: 7.08 µM
CCOC(=O)N1CCN(C(=O)C(c2ccccc2)c2ccccc2)CC1	inactive: 2.37%	–
CC(C)(C)NC(=S)NCc1ccc2c(c1)OCO2	–	inconclusive [inhibitor, single point]
COc1cc(/C=N/NC(=O)c2cc(-c3ccc4c(c3)OCO4)n[nH]2)ccc1O	–	inconclusive [inhibitor, single point]
N=c1oc2ccccc2cc1C(=O)Nc1ccccc1	–	inconclusive [inhibitor, single point]
CN(C)S(=O)(=O)c1cccc(NC(=S)N(CCC#N)Cc2cccnc2)c1	inactive: -21.2%	–
COc1cc(OC)c2c(-c3ccccc3)cc(=O)oc2c1C(CCN1CCOCC1)c1ccc2c(c1)OCO2 (stereo not drawn)	–	inconclusive [inhibitor, single point]
O=C(NCCc1ccccc1)C1CCN(c2ncccn2)CC1	inactive: 19.7%	–
O=C(Cc1c(F)cccc1Cl)Nc1nc2ccccc2s1	–	inconclusive [activator, single point]
CC(C)NC(=S)N=Nc1c(O)[nH]c2ccc(C(C)C)cc12	–	active: 4.47 µM
CC(C)c1ccc(NC(=O)/C(C#N)=C/c2ccncc2)cc1	–	inconclusive [inhibitor, single point]
CC(C)(C)c1ccc(C(=O)Nc2ccc(C(=O)NCc3cccnc3)cc2)cc1	–	active: 28.2 µM
N#Cc1ccccc1NC(=O)CSC1=Nc2ccccc2C2CC=NN12 (stereo not drawn)	–	inconclusive [inhibitor, single point]
CCc1nc(SCC(=O)c2ccc3c(c2)OCCO3)c2ccccc2n1	–	inconclusive [activator, partial curve, poor fit]
O=C(CN1CCCN(S(=O)(=O)c2ccc(Br)s2)CC1)Nc1ccc(Cl)cc1	–	inconclusive [inhibitor, single point]
Cc1ccc(S(=O)(=O)Nc2cccc(-c3ccc(N4CCCCCC4)nn3)c2)cc1	inactive: -5.65%	–
O=C1C2=C(NC(=S)NC2c2ccc(Cl)cc2)NC(c2ccc(Cl)cc2)N1c1ccc(Cl)cc1 (stereo not drawn)	inactive: -10.9%	–
O=C(O)CSc1cc(NS(=O)(=O)c2ccc(Cl)cc2)c2ccccc2c1O	–	inconclusive [inhibitor, single point]
Brc1ccc(-c2nnc3ccc(Nc4ccccc4)nn23)cc1	–	inconclusive [activator, single point]

SMILES	activity, negative = inhibition	Potency
Cc1nn(-c2cccc(Cl)c2)c2nc(C(F)(F)F)[nH]c(=O)c12	inactive: -2.55%	–
Cc1ccc(C)c(NC(=S)NCc2cccn2C)c1	–	active: 11.2 µM
COCCNc1nc(-c2cc3ccccc3o2)cs1	inactive: -7.72%	–
CCNC(=S)NNC(=O)c1cc(C)nc2ccccc12	–	inconclusive [inhibitor, single point]
CC(C(=O)N(C)C1CCS(=O)(=O)C1)N1C(=O)/C(=C/c2cccs2)SC1=S (stereo not drawn)	inactive: -5.08%	–
COc1ccc(/C=N/n2c(-c3ccccc3)n[nH]c2=S)cc1	–	active: 4.47 µM
CCCCN=C1NN=C(c2cccc([N+](=O)[O-])c2)CS1	inactive: 6.54%	–
CCOc1ccc(C(=O)N(Cc2ccc(OC)cc2)Cc2cc3cc(OC)ccc3[nH]c2=O)cc1	–	inconclusive [inhibitor, single point]
CCOC(=O)c1c(NC(=S)N2CCN(C)CC2)sc(C)c1-c1ccccc1	–	inconclusive [inhibitor, single point]
Nc1ccc2cc3ccc(N)cc3nc2c1	–	inconclusive [inhibitor, partial curve]
O=C(O)c1ccc(N/N=C/C2=Cc3ccccc3OC2)cc1	–	inconclusive [inhibitor, full curve]
COc1cc2oc(=O)c(Br)c(C)c2c(OC)c1OC	inactive: -1.17%	–
CCN(C(=O)CSc1nc2n[nH]c(C)c2c(=N)n1-c1ccc(Cl)c(C)c1)c1cccc(C)c1	–	inconclusive [inhibitor, single point]
CC1(C)Cc2ccccc2C(NNC(=O)c2ccccn2)=N1	–	active: 0.1 µM
COc1ccc(C(=O)NCc2cn3ccsc3n2)cc1OC	inactive: 5.12%	–
C=C(CC1([C@@H](NP(=O)(c2ccccc2)c2ccccc2)[C@H]2C[C@@H]2CCCC)CC1)c1cccc(OC)c1	–	inconclusive [inhibitor, single point]
Cc1nc2ccccc2c2nc3ccccc3n12	inactive: -14.2%	–
Cc1ccc(Sc2c(C)[nH]n(C(C)(C)C)c2=O)cc1	inactive: -4.35%	–
O=C(NCCC(c1ccccc1)c1ccco1)c1cccs1 (stereo not drawn)	–	inconclusive [activator, partial curve]
COc1ccc(C(=O)NCc2cc(C)nc3ccccc23)cc1	–	inconclusive [inhibitor, partial curve, poor fit]
Cc1cc(/C=N/Nc2ncnc(N)c2[N+](=O)[O-])c(C)n1-c1ccccc1	–	active: 6.31 µM
O=C(Nc1nccs1)c1ccc(COc2ccc(F)cc2)o1	–	inconclusive [inhibitor, single point]
O=C(c1ccccc1)N1N=C(C(F)(F)F)CC1(O)c1ccccc1O (stereo not drawn)	–	active: 12.6 µM
O=C(NCCOc1ccccc1)c1cc(C(=O)NCCOc2ccccc2)cc([N+](=O)[O-])c1	inactive: -2.35%	–
COc1ccccc1-c1cnn2c(NCCc3ccccc3)cc(C)nc12	–	inconclusive [activator, partial curve]
CNC(=O)COc1ccc2oc3c(c2c1)CCCC3	inactive: 10.4%	–

SMILES	activity, negative = inhibition	Potency
Cc1ccc(-c2cc(C(=O)N/N=C/c3ccoc3)c3ccccc3n2)cc1	–	active: 10 µM
COC(=O)COc1ccc(-c2nccc(-c3ccccn3)n2)cc1	–	inconclusive [inhibitor, partial curve]
CC1=NN(C(=O)Cn2ccc([N+](=O)[O-])n2)C(O)(C(F)(F)F)C1 (stereo not drawn)	–	inconclusive [inhibitor, single point]
COc1ccc(-c2nsc3c(SCC(=O)Nc4cc(C)ccc4C)ncnc23)cc1	–	inconclusive [inhibitor, full curve, poor fit]
Cc1ccccc1Cn1cccc1/C=C1/C(=N)N2C=CSC2=NC1=O	–	inconclusive [inhibitor, single point]
Cc1occc1-c1nnc(SCC(=O)Nc2nc(C(C)(C)C)cs2)o1	–	inconclusive [inhibitor, single point]
CCOC(=O)c1[nH]c2ccc(OC)cc2c1NC(=S)N1CCN(c2cccc(Cl)c2)CC1	–	inconclusive [inhibitor, single point]
Cc1cc(C(=O)N/N=C/c2cccnc2)c(C)o1	inactive: 4.18%	–
CC(C)n1c(CSCc2ccc(Cl)cc2Cl)n[nH]c1=S	–	active: 3.16 µM
COc1ccc(NC(=O)/C=C/c2ccccc2)cn1	–	inconclusive [activator, partial curve, poor fit]
COCCn1c(-c2ccc(F)cc2)nc2oc3cc(OC)ccc3c(=O)c2c1=O	inactive: -4.67%	–
Cc1ccc(-c2nc3cccnc3o2)cc1NC(=O)COc1ccc(C(C)(C)C)cc1	–	inconclusive [inhibitor, single point]
CCn1nc(C)cc1C(=O)N1CCCC(N2CCN(Cc3ccc4c(c3)OCO4)CC2)C1 (stereo not drawn)	inactive: -6.55%	–
N#C/C(=C\c1ccc(Sc2ccccc2)o1)c1nc2ccccc2[nH]1	–	inconclusive [inhibitor, single point]
O=C(Nc1nnc(-c2ccc3c(c2)CCCC3)o1)c1c(F)cccc1F	–	active: 4.47 µM
O=C(O)CN1CCc2ccccc2C1	inactive: 2.29%	–
CCCCn1c(N)c(C(=S)NC(=O)CC(C)(C)C)c(=O)n(C)c1=O	–	active: 0.708 µM
COC(CC(=O)NNC(=S)Nc1ccc(Cl)cc1)OC	–	inconclusive [inhibitor, partial curve]
CCOc1ccc(-n2c(-c3ccccc3)c[nH]c2=S)cc1	–	active: 5.62 µM
COc1ccc(-c2cc3ncc(-c4ccccc4)c(N)n3n2)cc1	–	active: 7.94 µM
Cc1ccc(/C=C/C(=O)N2CCc3ccccc3C2)cc1	–	inconclusive [inhibitor, single point]
CC(C)=CCC/C(C)=C/CC/C(C)=C/CSCC(=O)O	–	inconclusive [inhibitor, partial curve]
Cc1ccc(S(=O)(=O)N(C)C)cc1NC(=S)NC(C)CCCC(C)C (stereo not drawn)	–	inconclusive [inhibitor, single point]
CCc1ccc(-c2cc(C(=O)N3N=C(C(F)F)CC3(O)C(F)F)c3ccccc3n2)cc1 (stereo not drawn)	–	inconclusive [inhibitor, single point]
O=C(N/N=C/c1sc(N2CCCCC2)nc1-c1cccs1)c1cccnc1	–	active: 10 µM
Cc1noc(C)c1-c1ccc2ncnc(NCc3cccc(C(F)(F)F)c3)c2c1	–	active: 12.6 µM
